# Test results reported in the supplement of paper PMC8728848.
# This is one part of the list.
# B1: BDCA-2 (Homo sapiens), Q8WTT0 (protein)
# chain: MVPEEEPQDREKGLWWFQLKVWSMAVVSILLLSVCFTVSSVVPHNFMYSKTVKRLSKLREYQQYHPSLTCVMEGKDIEDWSCCPTPWTSFQSSCYFISTGMQSWTKSQKNCSVMGADLVVINTREEQDFIIQNLKRNSSYFLGLSDPGGRRHWQWVDQTPYNENVTFWHSGEPNNLDERCAIINFRSSEEWGWNDIHCHVPQKSICKMKKIYI
# Legend:
# Assay in all cases: glycan array binding signal (z-score within array); higher = stronger binding
# Details in all cases: glycan notation: IUPAC condensed, linker removed
# [1] = molecular target: Neu5Ac(a2-6)Gal(b1-4)GlcNAc(b1-2)Man(a1-3)[Neu5Ac(a2-6)Gal(b1-4)GlcNAc(b1-2)Man(a1-6)]Man(b1-4)GlcNAc(b1-4)[Fuc(a1-6)]GlcNAc
# Method in brief: (§1)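 Arrays were curated from the Consortium for Functional Glycomics database, 3228 in total, and kept only where the protein sequence was available. Binding is expressed as a within-array Z-score. This score was averaged across arrays of the same protein sequence at different concentrations or buffers and across linkers, and negative values can be read as non-binding.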
# [2] = molecular target: Neu5Ac(a2-6)Gal(b1-4)GlcNAc(b1-2)Man(a1-6)Man(b1-4)GlcNAc(b1-4)GlcNAc
# Method in brief: as §1
# [3] = molecular target: Neu5Ac(a2-6)Gal(b1-4)GlcNAc(b1-2)Man(a1-6)[Gal(b1-4)GlcNAc(b1-2)Man(a1-3)]Man(b1-4)GlcNAc(b1-4)GlcNAc
# Method in brief: as §1
# [4] = molecular target: Neu5Ac(a2-6)Gal(b1-4)GlcNAc(b1-2)Man(a1-6)[GlcNAc(b1-2)Man(a1-3)]Man(b1-4)GlcNAc(b1-4)GlcNAc
# Method in brief: as §1
# [5] = molecular target: Neu5Ac(a2-6)Gal(b1-4)GlcNAc(b1-2)Man(a1-6)[Man(a1-3)]Man(b1-4)GlcNAc(b1-4)GlcNAc
# Method in brief: as §1
# [6] = molecular target: Neu5Ac(a2-6)Gal(b1-4)GlcNAc(b1-2)[Neu5Ac(a2-6)Gal(b1-4)GlcNAc(b1-4)]Man(a1-3)[GlcNAc(b1-4)][Neu5Ac(a2-6)Gal(b1-4)GlcNAc(b1-2)[Neu5Ac(a2-6)Gal(b1-4)GlcNAc(b1-6)]Man(a1-6)]Man(b1-4)GlcNAc(b1-4)GlcNAc
# Method in brief: as §1
# [7] = molecular target: Neu5Ac(a2-6)Gal(b1-4)GlcNAc(b1-2)[Neu5Ac(a2-6)Gal(b1-4)GlcNAc(b1-4)]Man(a1-3)[GlcNAc(b1-4)][Neu5Ac(a2-6)Gal(b1-4)GlcNAc(b1-4)Man(a1-6)]Man(b1-4)GlcNAc(b1-4)GlcNAc
# Method in brief: as §1
# [8] = molecular target: Neu5Ac(a2-6)Gal(b1-4)GlcNAc(b1-2)[Neu5Ac(a2-6)Gal(b1-4)GlcNAc(b1-6)]Man(a1-6)[Neu5Ac(a2-6)Gal(b1-4)GlcNAc(b1-2)Man(a1-3)][GlcNAc(b1-4)]Man(b1-4)GlcNAc(b1-4)GlcNAc
# Method in brief: as §1
# [9] = molecular target: Neu5Ac(a2-6)Gal(b1-4)GlcNAc(b1-3)Gal(b1-3)GlcNAc
# Method in brief: as §1
# [10] = molecular target: Neu5Ac(a2-6)Gal(b1-4)GlcNAc(b1-3)Gal(b1-4)GlcNAc
# Method in brief: as §1
# [11] = molecular target: Neu5Ac(a2-6)Gal(b1-4)GlcNAc(b1-3)Gal(b1-4)GlcNAc(b1-2)Man(a1-3)[Neu5Ac(a2-6)Gal(b1-4)GlcNAc(b1-3)Gal(b1-4)GlcNAc(b1-2)Man(a1-6)]GalNAc
# Method in brief: as §1
# [12] = molecular target: Neu5Ac(a2-6)Gal(b1-4)GlcNAc(b1-3)Gal(b1-4)GlcNAc(b1-3)Gal(b1-4)GlcNAc
# Method in brief: as §1
# [13] = molecular target: Neu5Ac(a2-6)Gal(b1-4)GlcNAc(b1-3)Gal(b1-4)GlcNAc(b1-3)Gal(b1-4)GlcNAc(b1-2)Man(a1-3)[Neu5Ac(a2-6)Gal(b1-4)GlcNAc(b1-3)Gal(b1-4)GlcNAc(b1-3)Gal(b1-4)GlcNAc(b1-2)Man(a1-6)]GalNAc
# Method in brief: as §1
# [14] = molecular target: Neu5Ac(a2-6)Gal(b1-4)GlcNAc(b1-3)Gal(b1-4)GlcNAc(b1-3)GalNAc
# Method in brief: as §1
# [15] = molecular target: Neu5Ac(a2-6)Gal(b1-4)GlcNAc(b1-3)Gal(b1-4)GlcNAc(b1-3)[Neu5Ac(a2-6)Gal(b1-4)GlcNAc(b1-3)Gal(b1-4)GlcNAc(b1-6)]GalNAc
# Method in brief: as §1
# [16] = molecular target: Neu5Ac(a2-6)Gal(b1-4)GlcNAc(b1-3)Gal(b1-4)GlcNAc(b1-6)[Gal(b1-3)]GalNAc
# Method in brief: as §1
# [17] = molecular target: Neu5Ac(a2-6)Gal(b1-4)GlcNAc(b1-3)Gal(b1-4)[Fuc(a1-3)]GlcNAc(b1-3)Gal(b1-4)[Fuc(a1-3)]GlcNAc
# Method in brief: as §1
# [18] = molecular target: Neu5Ac(a2-6)Gal(b1-4)GlcNAc(b1-3)GalNAc
# Method in brief: as §1
# [19] = molecular target: Neu5Ac(a2-6)Gal(b1-4)GlcNAc(b1-3)[Neu5Ac(a2-6)Gal(b1-4)GlcNAc(b1-6)]GalNAc
# Method in brief: as §1
# [20] = molecular target: Neu5Ac(a2-6)Gal(b1-4)GlcNAc(b1-6)GalNAc
# Method in brief: as §1
# [21] = molecular target: Neu5Ac(a2-6)Gal(b1-4)GlcNAc(b1-6)[Gal(b1-3)GlcNAc(b1-3)]Gal(b1-4)Glc
# Method in brief: as §1
# [22] = molecular target: Neu5Ac(a2-6)Gal(b1-4)GlcNAc(b1-6)[Gal(b1-3)]GalNAc
# Method in brief: as §1
# [23] = molecular target: Neu5Ac(a2-6)Gal(b1-4)GlcNAc6S
# Method in brief: as §1
# Neu5Ac(a2-6)GalNAc = molecular target: Neu5Ac(a2-6)GalNAc
# Method in brief: as §1
# [24] = molecular target: Neu5Ac(a2-6)GalNAc(b1-4)GlcNAc
# Method in brief: as §1
# [25] = molecular target: Neu5Ac(a2-6)GalNAc(b1-4)GlcNAc6S
# Method in brief: as §1
# [26] = molecular target: Neu5Ac(a2-6)GlcNAc(b1-4)GlcNAc
# Method in brief: as §1
# [27] = molecular target: Neu5Ac(a2-6)GlcNAc(b1-4)GlcNAc(b1-4)GlcNAc
# Method in brief: as §1
# Neu5Ac(a2-8)Neu5Ac = molecular target: Neu5Ac(a2-8)Neu5Ac
# Method in brief: as §1
# [28] = molecular target: Neu5Ac(a2-8)Neu5Ac(a2-3)Gal(b1-3)GalNAc(b1-4)[Neu5Ac(a2-3)]Gal(b1-4)Glc
# Method in brief: as §1
# [29] = molecular target: Neu5Ac(a2-8)Neu5Ac(a2-3)Gal(b1-3)GalNAc(b1-4)[Neu5Ac(a2-8)Neu5Ac(a2-3)]Gal(b1-4)Glc
# Method in brief: as §1
# [30] = molecular target: Neu5Ac(a2-8)Neu5Ac(a2-3)Gal(b1-4)Glc
# Method in brief: as §1
# [31] = molecular target: Neu5Ac(a2-8)Neu5Ac(a2-3)Gal(b1-4)GlcNAc
# Method in brief: as §1
# [32] = molecular target: Neu5Ac(a2-8)Neu5Ac(a2-3)[Gal(b1-3)GalNAc(b1-4)]Gal(b1-4)Glc
# Method in brief: as §1
# [33] = molecular target: Neu5Ac(a2-8)Neu5Ac(a2-3)[GalNAc(b1-4)]Gal(b1-4)Glc
# Method in brief: as §1
# [34] = molecular target: Neu5Ac(a2-8)Neu5Ac(a2-8)Neu5Ac
# Method in brief: as §1
# [35] = molecular target: Neu5Ac(a2-8)Neu5Ac(a2-8)Neu5Ac(a2-3)Gal(b1-4)Glc
# Method in brief: as §1
# [36] = molecular target: Neu5Ac(a2-8)Neu5Ac(a2-8)Neu5Ac(a2-3)[Gal(b1-3)GalNAc(b1-4)]Gal(b1-4)Glc
# Method in brief: as §1
# [37] = molecular target: Neu5Ac(a2-8)Neu5Ac(a2-8)Neu5Ac(a2-3)[GalNAc(b1-4)]Gal(b1-4)Glc
# Method in brief: as §1
# [38] = molecular target: Neu5Ac(a2-8)Neu5Ac(a2-8)Neu5Ac(a2-8)Neu5Ac(a2-3)[GalNAc(b1-4)]Gal(b1-4)Glc
# Method in brief: as §1
# [39] = molecular target: Neu5Ac(a2-8)Neu5Gc(a2-3)Gal(b1-4)GlcNAc
# Method in brief: as §1
# Neu5Ac(b1-6)GalNAc = molecular target: Neu5Ac(b1-6)GalNAc
# Method in brief: as §1
# [40] = molecular target: Neu5Ac(b2-6)Gal(b1-4)GlcNAc
# Method in brief: as §1
# Neu5Ac(b2-6)GalNAc = molecular target: Neu5Ac(b2-6)GalNAc
# Method in brief: as §1
# [41] = molecular target: Neu5Ac9Ac(a2-3)Gal(b1-3)GlcNAc
# Method in brief: as §1
binder,measurement,setting,value
B1,glycan array binding signal (z-score),[1],-0.158
same,glycan array binding signal (z-score),[2],-0.16
same,glycan array binding signal (z-score),[3],11.8
same,glycan array binding signal (z-score),[4],-0.009
same,glycan array binding signal (z-score),[5],-0.146
same,glycan array binding signal (z-score),[6],-0.166
same,glycan array binding signal (z-score),[7],-0.116
same,glycan array binding signal (z-score),[8],-0.174
same,glycan array binding signal (z-score),[9],-0.164
same,glycan array binding signal (z-score),[10],-0.203
same,glycan array binding signal (z-score),[11],-0.174
same,glycan array binding signal (z-score),[12],-0.186
same,glycan array binding signal (z-score),[13],-0.155
same,glycan array binding signal (z-score),[14],-0.17
same,glycan array binding signal (z-score),[15],-0.113
same,glycan array binding signal (z-score),[16],-0.149
same,glycan array binding signal (z-score),[17],-0.22
same,glycan array binding signal (z-score),[18],-0.155
same,glycan array binding signal (z-score),[19],-0.167
same,glycan array binding signal (z-score),[20],-0.084
same,glycan array binding signal (z-score),[21],-0.165
same,glycan array binding signal (z-score),[22],-0.164
same,glycan array binding signal (z-score),[23],-0.042
same,glycan array binding signal (z-score),Neu5Ac(a2-6)GalNAc,-0.305
same,glycan array binding signal (z-score),[24],-0.181
same,glycan array binding signal (z-score),[25],-0.184
same,glycan array binding signal (z-score),[26],-0.186
same,glycan array binding signal (z-score),[27],-0.178
same,glycan array binding signal (z-score),Neu5Ac(a2-8)Neu5Ac,-0.243
same,glycan array binding signal (z-score),[28],-0.178
same,glycan array binding signal (z-score),[29],1.5
same,glycan array binding signal (z-score),[30],-0.258
same,glycan array binding signal (z-score),[31],-0.192
same,glycan array binding signal (z-score),[32],-0.129
same,glycan array binding signal (z-score),[33],-0.216
same,glycan array binding signal (z-score),[34],-0.285
same,glycan array binding signal (z-score),[35],-0.34
same,glycan array binding signal (z-score),[36],-0.179
same,glycan array binding signal (z-score),[37],-0.091
same,glycan array binding signal (z-score),[38],-0.318
same,glycan array binding signal (z-score),[39],-0.182
same,glycan array binding signal (z-score),Neu5Ac(b1-6)GalNAc,-0.132
same,glycan array binding signal (z-score),[40],-0.274
same,glycan array binding signal (z-score),Neu5Ac(b2-6)GalNAc,-0.173
same,glycan array binding signal (z-score),[41],-0.17
